Measurements taken from PubChem BioAssay AID1963976 (Molecular Pharmacology Branch, DTP, NCI, 2024).
Certain results were filed several times, with different values. The other results are left out here. There may be further records. Values given together are repeated measurements in other runs, samples, wells, individuals or studies. Additions like (4×) count equal records among those shown.

Tested on: 435261-313-R-J1-PDC tumor spheroid viability
Assay: Anticancer human tumor 435261-313-R-J1-PDC patient-derived colon adenocarcinoma cell line growth inhibition [PI3K]
Settings: spheroids with HUVEC and MSC; for viability, T/C: stronger effect = lower value; for IC50: compound alone
Description: Combinatorial screen of targeted agents with the PI3K inhibitors inavolisib, alpelisib, duvelisib, and copanlisib in multi-cell type tumor spheroids
A high-throughput screen of multi-cell type tumor spheroids was designed to identify active combinations of targeted small molecules and PI3K pathway inhibitors. Complex spheroids include a stromal component modeled by human endothelial cells (HUVEC) and fibroblasts modeled by human mesenchymal stem cells (MSCs). The concentration ranges selected for each drug and investigational agent were based upon clinically achievable concentrations if the clinical Cmax of the agent was known.
Compounds. The drugs and investigational agents: inavolisib (NSC800729), alpelisib (NSC765974), duvelisib (NSC772469), copanlisib (NSC816437), ipatasertib (NSC767898), afuresertib (NSC778305), talazoparib (NSC767125), sapanisertib (NSC764658), selumetinib (NSC741078), tovorafenib (DAY101, NSC766906), vemurafenib (NSC761431), ravoxertinib (NSC781343), sotorasib (NSC818433), MRTX1133 (NSC 836407), abemaciclib (NSC 768073), palbociclib (NSC758247), venetoclax (NSC 766270), SY5609 (NSC837396), enzalutamide (NSC755605), and darolutamide (NSC825331), were obtained from the National Cancer Institute (NCI) Developmental Therapeutics Program Chemical Repository. The FDA-approved anticancer drug set is available from the NCI Developmental Therapeutics Program. […] The stock solutions were prepared in dimethyl sulfoxide (DMSO, Sigma-Aldrich, St. Louis, MO, cat. D2650) at 800-fold the tested concentration and stored at -70 degrees C prior to their use. All drugs and investigational agents were tested over a range starting from a high concentration at or near the clinical Cmax and decreasing in half-log increments. If the clinical Cmax for an agent had not been determined, the highest concentration tested was 10 microM.
Cell Culture. All cells were maintained in an incubator at 37 degrees C and 5% CO2 with 95% humidity. The PDC lines were cultured according to standard operating procedures established by the NCI PDMR (https://pdmr.cancer.gov/sops/default.htm). All PDCs were thawed and cultured in Matrigel-coated flasks prepared with a working solution of 1X Ham's F-12 nutrient mix, without supplementation (Invitrogen, Waltham, MA, cat. 11765054), 100 U/mL penicillin-streptomycin (Invitrogen, cat. 15140122), and 2.5% Matrigel (Corning Inc., Corning, NY, cat. 354248) for the first three passages. The 354836-022-R-J1-PDC, 475296-252-R-J1-PDC, and 997726-040-R-J2-PDC lines were cultured in 6A media, which includes advanced DMEM/F-12 (Thermo Fisher Scientific, cat. 12634028), 10 mM HEPES (Thermo Fisher Scientific, cat. 15630080), 1X GlutaMAX supplement (Thermo Fisher Scientific, cat. 35050061), 0.1 mg/mL primocin (InvivoGen, San Diego, CA, cat. ant-pm-2), 10% defined fetal bovine serum, heat inactivated (HyClone Laboratories Inc., Logan, UT, cat. SH30070.03HI), 50% L-WRN conditioned media (ATCC, cat. CRL-3276), 1.25 mM N-Acetyl-L-cysteine (Sigma-Aldrich, cat. A9165), 10 mM nicotinamide (Sigma-Aldrich, cat. N0636), 1X B-27 supplement (Thermo Fisher Scientific, cat. 17504044), 1X N-2 supplement (Thermo Fisher Scientific, cat. 17502048), and 10 microM Y-27632 dihydrochloride (Tocris Bioscience, Bristol, United Kingdom, cat. 1254). The 624824-186-R-J2-PDC line was cultured in 6C/Colon 1B media, which includes all 6A media components plus 50 ng/mL human EGF recombinant protein (Thermo Fisher Scientific, cat. PHG0311). […]
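Further: spheroids exposed to compounds for 7 days.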

CC1(C)CCC(CN2CCN(c3ccc(C(=O)NS(=O)(=O)c4ccc(NCC5CCOCC5)c([N+](=O)[O-])c4)c(Oc4cnc5[nH]ccc5c4)c3)CC2)=C(c2ccc(Cl)cc2)C1 was tested. Which viability, T/C (compound alone 0.0316 µM) did it give?
The viability, T/C was 78.1, 77.3, 92.4, 105%.

What about the viability, T/C (compound alone 0.1 µM) of the same compound?
Its viability, T/C is 79.9, 109, 63, 72.1%.

What about the viability, T/C (compound alone 0.316 µM) of the same compound?
The viability, T/C was 70.9, 116, 106, 131%.

What about the viability, T/C (compound alone 1 µM) of the same compound?
Its viability, T/C is 76, 91.4, 87.1, 106%.

And the viability, T/C (compound alone 10 µM)?
Its viability, T/C is 12.7, 19.4, 71.2, 15.5%.

What about the IC50 of the same compound?
Its IC50 is 5.45 µM, 6.46 µM, > 10 µM, 5.79 µM.

Cc1nc(NC(=O)N2CCCC2C(N)=O)sc1-c1ccnc(C(C)(C)C(F)(F)F)c1 (stereo not given) was tested. Which viability, T/C (compound alone 0.0316 µM) did it give?
The viability, T/C was 98.5, 73.1, 84.7, 98.3, 98.9, 88.6%.

Which viability, T/C (compound alone 0.000316 µM) does the source give for Cn1ncnc1[C@H]1c2n[nH]c(=O)c3cc(F)cc(c23)N[C@@H]1c1ccc(F)cc1 here?
The viability, T/C was 72.2, 67.2, 99.3, 127%.

What about the viability, T/C (compound alone 0.001 µM) of the same compound?
The viability, T/C was 81.3, 95.7, 69.7, 73.6%.

What about the viability, T/C (compound alone 0.01 µM) of the same compound?
The viability, T/C was 73.9, 101, 77.2, 93.4%.

And the viability, T/C (compound alone 0.0316 µM)?
The viability, T/C was 77.5, 102, 91.7, 65.2%.

What does the source list for CC(Nc1ncnc2nc[nH]c12)c1cc2cccc(Cl)c2c(=O)n1-c1ccccc1 (stereo not given)?
viability, T/C (compound alone 0.0316 µM): 92.6, 110, 95.9, 84.9, 96.1, 84.4, 92.4%; viability, T/C (compound alone 0.1 µM): 103 (2×), 105, 72.6, 75.1, 110, 76.6%; viability, T/C (compound alone 0.316 µM): 87.6, 86.9, 104, 71.6, 84.5, 74.7, 92.2%; viability, T/C (compound alone 10 µM): 64.4, 59.7, 37.5, 56.9, 60.2, 32.6, 46.5%; IC50 (run of 06/13/2023): 6.68 µM, > 10 µM, 6.28 µM, 8.3 µM

Which viability, T/C (compound alone 0.316 µM) does the source give for CC1(C)CCC(Nc2ncc(C(F)(F)F)c(-c3c[nH]c4c(P(C)(C)=O)c(C#N)ccc34)n2)CN1 (stereo not given) here?
The viability, T/C was 41.7, 66.3, 58.7, 72.3%.

And the IC50?
Its IC50 is 315 nM, 1.25 µM, 2.59 µM, 3.76 µM.

For CNC(=O)c1ccc(N2C(=S)N(c3ccc(C#N)c(C(F)(F)F)c3)C(=O)C2(C)C)cc1F, which viability, T/C (compound alone 0.0316 µM) is on record?
Its viability, T/C is 74.1, 113, 120, 104%.

And the viability, T/C (compound alone 0.1 µM)?
The viability, T/C was 68.9, 115, 89.1, 74.2%.

What about the viability, T/C (compound alone 0.316 µM) of the same compound?
The viability, T/C was 93.1, 99.2, 80.7, 72.9%.

And the viability, T/C (compound alone 1 µM)?
The viability, T/C was 91.8, 90.2, 122, 68%.

And the viability, T/C (compound alone 10 µM)?
The viability, T/C was 122, 88.1, 84.4, 83.1%.

Which IC50 does the source give for CCN1CCN(Cc2ccc(Nc3ncc(F)c(-c4cc(F)c5nc(C)n(C(C)C)c5c4)n3)nc2)CC1 here?
The IC50 was 73.7 nM, 781 nM, > 1 µM.

For C=CC(=O)N1CCN(c2nc(=O)n(-c3c(C)ccnc3C(C)C)c3nc(-c4c(O)cccc4F)c(F)cc23)C(C)C1 (stereo not given), which viability, T/C (compound alone 0.1 µM) is on record?
The viability, T/C was 113, 92.1, 81.7, 83.2%.

And the viability, T/C (compound alone 1 µM)?
Its viability, T/C is 72.7, 102, 77.8, 123%.

Which viability, T/C (compound alone 0.00316 µM) does the source give for CC(Nc1ccc2c(c1)OCCn1cc(N3C(=O)OCC3C(F)F)nc1-2)C(N)=O (stereo not given) here?
Its viability, T/C is 108, 99.9, 94.9, 101, 85.5, 77.8, 88.4%.

And the viability, T/C (compound alone 0.01 µM)?
The viability, T/C was 120, 85.1, 86.3, 92.4, 87.6, 93.2, 108%.

What about the viability, T/C (compound alone 0.0316 µM) of the same compound?
The viability, T/C was 35.9, 53.1, 91.9, 81.3, 66.9, 110, 104%.

And the IC50 (run of 06/12/2023)?
Its IC50 is 25.7, 38.2, 66.5, 66.8, 56.5, 67.1, 78.2 nM.

With Cn1nccc1Nc1nccc(-c2ccn(C(CO)c3ccc(Cl)c(F)c3)c(=O)c2)n1 (stereo not given) as the compound, how does the viability, T/C (compound alone 0.0316 µM) read?
The viability, T/C was 68.2, 50, 103, 94.5%.

What about the viability, T/C (compound alone 0.1 µM) of the same compound?
Its viability, T/C is 72.5, 67.9, 67.7, 95.5%.

And the IC50?
The IC50 was 518, 227, 403, 925 nM.

With COc1c(OCCCN2CCOCC2)ccc2c3n(c(=NC(=O)c4cnc(N)nc4)nc12)CCN3 as the compound, how does the viability, T/C (compound alone 0.00316 µM) read?
Its viability, T/C is 65.8, 76.7, 90.8, 84.8, 57.5, 89.1%.

What about the viability, T/C (compound alone 0.01 µM) of the same compound?
The viability, T/C was 51.8, 58.3, 58.7, 54, 55.8, 83.8%.
